Values joined by “and” are separate entries in the source; they are usually repeats but may differ in a detail not shown here. Identical values can stand only once.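 Exposure lasted 48 hours, with cells grown in 96-well plates and compounds tested at five concentrations. GI50: concentration for 50% inhibition of growth. TGI: concentration producing complete growth inhibition.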

This passage reports TGI and GI50 results from PubChem BioAssay (NCI).

In this assay the test system is NCI-H322M lung. The assay is described as follows: inhibition of tumour cell growth, NCI panel, 48 h.

Take `CC(=O)C1CC(C)=CCC12C(=O)Nc1ccccc12` (configuration not stated): the TGI was more than 100 µM. In the case of `COc1ccc(N=C2CSc3nnc(-c4cc(F)c(Cl)cc4Cl)n3N2)cc1`, the GI50 is 4.92 µM and the TGI worked out at 36.9 µM. For `CCN(CC)CCOc1nc2ccc(OC)cc2c2c1-c1ccc(OC)cc1C2=O`, in that order: 0.533 µM and 2.04 µM. Consider `O=C(c1ccc(Cl)cc1)c1ccc(OCC(=O)N2CCN(c3ccccc3)CC2)cc1`, for which the TGI was more than 100 µM. For `Cn1ccnc1S/C(=C\C=C(C#N)C#N)c1ccc(Cl)cc1`, the GI50 was 11 µM and the TGI is more than 38.1 µM. As to `CN1CCN(CN2C(=O)C3C4C=CC(C3C2=O)C2C3C(=O)N(CN5CCN(C)CC5)C(=O)C3C42)CC1` (configuration not stated), the GI50 is 43.1 µM and > 64.2 µM and > 100 µM; the TGI was more than 100 µM. In turn, `CCC(CCCN)Nc1cc(OC)cc2cccnc12` (configuration not stated) gave a TGI of more than 100 µM.

As to `O=C(CSc1nc2ccccc2[nH]1)Nc1ccc(-c2nc3ccccc3s2)c(Cl)c1`, the GI50 is 5.44 µM and the TGI was more than 100 µM. `COC(=O)c1cc(C)ccc1CC(Cc1cccc(C)c1)C(=O)OC` (configuration not stated) came in with a TGI of more than 100 µM. The same measure, in the same setting: then `CCC(C)[C@H](NC(=O)N[C@H](C)c1ccccc1)C(=O)OC` (some centres not stated), with more than 100 µM; and `Cc1cnoc1NC1=CC(=O)C(=O)c2ccccc21`, with more than 100 µM. On the same count and under the same terms, then `Oc1ccc(/C=C\c2nnc(/C=C\c3ccc(O)c(O)c3)s2)cc1O`, with more than 53.5 µM. Regarding `CS(=O)(=O)CCNCc1nc(-c2ccc3ncnc(Nc4ccc(F)c(Cl)c4)c3c2)cs1`, the GI50 is 0.304 µM and the TGI is more than 25 µM. The molecule `N#Cc1c(-c2nc3ccccc3s2)c(=O)oc2cc(O)ccc12` showed a TGI of more than 100 µM. Still for that read-out and setting: in the case of `COC(=O)CCCc1ccc2c(c1)CC1(C2)Cc2cc3c(cc2C1)CCCC3` it was more than 100 µM. Still for that read-out and setting: in the case of `CC(C)CCCC(C)[C@H]1CCC2[C@@H]3CCC4Cc5nc6c(nc5C[C@]4(C)C3CC[C@@]21C)CC1CC[C@@H]2C(C[C@@H](O)[C@@]3(C)C2C[C@@H]2OC4(CCC(C)CO4)C(C)[C@@H]23)[C@@]1(C)C6` (some centres not stated) it was more than 100 µM; in that of `COc1ccc2c(c1)O[C@@H]1C(O)Oc3cc(OC)c(OC)cc3[C@]1(O)C2=O` (some centres not stated), more than 100 µM; in that of `c1ccc(CNc2c3c(nc4ccccc24)CCC3)cc1`, 46.7 µM. On the same count and under the same terms, then `CCc1cccc(C(C)C)c1NC(=O)C(=O)C(Cc1nc2ccccc2[nH]c1=O)C(=O)OC` (configuration not stated), with more than 100 µM; and `COc1cc([C@H]2c3cc4c(cc3O[C@@]3(O)COC(=O)[C@@H]23)OCO4)cc(OC)c1OC`, with more than 100 µM; and `CC1(C)OC2OC(COC(=O)C=[N+]=[N-])C3OC(C)(C)OC3C2O1` (configuration not stated), with more than 100 µM. In turn, `CC1OC(OCC2OC(Oc3c(-c4ccc(O)cc4)oc4cc(O)cc(O)c4c3=O)C(OC3OCC(O)(CO)C3O)C(O)C2O)C(O)C(O)C1O` (configuration not stated) registered a TGI of more than 100 µM.

With `O=C(c1ccccc1)C(C(=O)c1ccccc1)C1(O)C(=O)c2ccccc2C1=O`, the TGI is more than 100 µM. The same measure, in the same setting: in the case of `Cc1ccc(C(=O)OC[C@H]2CC[C@@H](n3cc(N(C)C4CCCCC4)c(=O)[nH]c3=O)O2)cc1` it was more than 100 µM.

As to `O=c1c2ccccc2[nH]c(=S)n1-c1ccc(Br)cc1`, the TGI was more than 100 µM.

The molecule `O=C(NCCN(CCNC(=O)c1cccc(=O)n1O)CCN(CCNC(=O)c1cccc(=O)n1O)CCNC(=O)c1cccc(=O)n1O)c1cccc(=O)n1O` showed a TGI of more than 100 µM. Turning to `COc1cc(C2C=C(c3cccc(NC(C)=O)c3)Nc3ncnn32)cc(OC)c1OC` (configuration not stated), the GI50 was 2.17 µM and the TGI was more than 100 µM. In turn, `S=C1c2ccccc2NC(=NC2CCCC2)C2CSCN12` (configuration not stated) registered a TGI of more than 100 µM. On to `COc1ccc(-c2nc3sc(C)cn3c2/C=C/C(=O)c2cc(OC)c(OC)c(OC)c2)cc1`, for which the GI50 was 5.65 µM and the TGI was more than 100 µM.

Consider `N=C(N)SCCON1C(=O)c2ccccc2C1=O`, for which the TGI was more than 100 µM. Same read-out and setting: then `Cn1c(=O)nc2n(-c3ccc(Cl)cc3)c3ccc(Cl)cc3nc-2c1=O`, with 69.3 µM; and `Cn1ccnc1Sc1ccc(/C=N/NC(=O)c2ccccc2O)cc1[N+](=O)[O-]`, with more than 100 µM. Molecule `CCCC/C=C1\CCC(CN2CCCCC2)C1=O` (configuration not stated) had a TGI of 47.4 µM. Regarding `CC(=O)Nc1ccc2c(c1)c(C1=C(c3cn(C)c4ccccc34)C(=O)NC1=O)cn2C`, the GI50 was 9.59 µM and the TGI was more than 25 µM.

The molecule `O=P(O)(CCP(=O)(O)c1ccccc1)c1ccccc1` showed a TGI of more than 100 µM.

Consider `Cc1cc(-c2ncc(CC(=O)Nc3ccc(-c4cnccn4)cn3)cc2C)ccn1`, for which the GI50 is 79.3 µM and the TGI is more than 100 µM. For `COc1ccc2nc(N/N=C(\C)c3ccccn3)cc(C)c2c1`, in that order: 0.14 µM and 1.55 µM.

Take `COc1ccc(-c2nn3ncccc3c2-c2ccnc(Nc3ccc(Cl)c(C(F)(F)F)c3)n2)cc1`: the GI50 was more than 21.6 µM and the TGI is more than 25 µM. `CC(C)Oc1c(-c2c(OC(C)C)c(=O)c2=O)c(=O)c1=O` had a TGI of more than 100 µM. On to `COc1ccc(Cl)cc1Nc1nc(C(F)(F)F)ccc1C(=O)N/N=C/c1c(Cl)cccc1Cl`, for which the GI50 is 2.91 µM and the TGI was more than 100 µM.

In turn, `NCCC(N)C(=O)O` (configuration not stated) showed a TGI of more than 100 µM. Turning to `Cc1ccc(-[n+]2c3cc(N)c(C)cc3nc3cc(C)c(Nc4ccccc4)cc32)cc1`, the GI50 is 0.241 µM and the TGI came to 0.915 µM. For the molecule `Cc1cc2c(cc1Cl)Sc1nnc(Nc3ccccc3)n1S2(=O)=O`, the TGI worked out at 49.5 µM. The same measure, in the same setting: then `O=C(Nc1sccc1S(=O)(=O)c1ccccc1)c1cccnc1`, with more than 100 µM. The same measure, in the same setting: then `COc1ccc(N[C@H](CS(=O)c2ccc(C)cc2)c2ccc(F)cc2)cc1` (some centres not stated), with more than 100 µM; and `CSc1c(C(=O)Nc2ccccc2)c(N)nn1-c1ccccc1`, with more than 100 µM; and `COc1ccc(CCn2cnc3ccccc32)cc1`, with more than 100 µM.

As to `CCN1CC(C)Cn2c(=O)[nH]c3cc(Br)cc1c32` (configuration not stated), the TGI was more than 100 µM.

On to `O=C1NCc2ccc3c(-c4cccc(Cl)c4)c[nH]c3c21`, for which the GI50 was 1.21 µM and the TGI was more than 50 µM. Molecule `COc1ccc(N(C(=O)Nc2ccc(Cl)c(Cl)c2)c2ccccc2)cc1` registered a TGI of more than 10 µM. Still for that read-out and setting: then `Cn1c(=O)c2c(nc(NCCCCl)n2CC(=O)O)n(C)c1=O`, with more than 100 µM; and `C=CC(=O)N1C/C(=C\c2ccc(N(C)C)cc2)C(=O)/C(=C/c2ccc(N(C)C)cc2)C1`, with more than 100 µM. In turn, `CN1CC2=C(OC(N)=C(C#N)C2c2cccs2)/C(=C/c2cccs2)C1` (configuration not stated) gave a TGI of more than 61.8 µM. Still for that read-out and setting: in the case of `CCOC/N=C(/N)NC#N` it was more than 100 µM; in that of `CC(=O)NNc1nc(C)c(C(/C=C/c2ccc3c(c2)OCO3)=N/Nc2ccccc2)s1`, more than 100 µM. Regarding `C=C1C(=O)O[C@H]2[C@H]1CC/C(Cn1cc(CNC(=O)Cc3cn(C(=O)c4ccc(Cl)cc4)c4ccc(OC)cc34)nn1)=C\CC[C@@]1(C)O[C@@H]21`, the GI50 is 10.6 µM and the TGI was found to be 22.6 µM. On to `COc1cc(OC)c2c(O)cc(CC(C)O)cc2c1` (configuration not stated), for which the TGI was more than 100 µM. Still for that read-out and setting: then `O=C(O)CSc1n[nH]c(-c2ccc(O)cc2)n1`, with more than 100 µM; and `Cc1cc(C)nc(NS(=O)(=O)c2ccc(Nc3c4ccccc4nc4c(C(=O)Nc5ccc(S(=O)(=O)N=C(N)N)cc5)ccc(Cl)c34)cc2)n1`, with 55.3 µM; and `OC(C1CCC=NN1C(O)(C(F)(F)F)C(F)(F)F)(C(F)(F)F)C(F)(F)F` (configuration not stated), with more than 10 µM. `Nn1c(-c2ccccc2)nc2ccc(Br)cc2c1=O` gave a TGI of more than 100 µM.
